# Reference: ChEMBL document CHEMBL4888484, “Replenishing the malaria drug discovery pipeline: Screening and hit evaluation of the MMV Hit Generation Library 1 (HGL1) against asexual blood stage Plasmodium falciparum ,using a nano luciferase reporter read-out” (2022)
# The campaign covered roughly 150,000 compounds. About 540 (0.36%) showed an effect of 50% or more. This is one part of the list.
# System: Plasmodium falciparum
# Assay: Primary screen in NF54 nanoGlo assay, in single point, at 2uM, 72h; a lower Z score goes with more inhibition
# Type: functional, Erythrocyte
# Conditions: timepoint 72 hour
Compound,% Inhibition,Z score
C[C@H]1C(=O)N(C)C[C@H](CO)N1Cc1ccc2c(c1)OCCO2,-11%,1.35
CC(C)C[C@H](NC(=O)c1ccnn1CCO)C(N)=O,-14%,1.76
O=C(NC1CCN(Cc2ccccc2)CC1)c1cnn2c1OCCC2,-11%,1.69
CC1CCCCN1C(=O)NCCC1CCCO1 (stereo not drawn),-6%,0.74
Cc1nc2cc(CNC(=O)[C@H]3CCCN(C4CCCC4)C3)ccc2n1C,0%,-0.02
C[C@H](Nc1ccc(N2CCCC2=O)cc1)C(=O)N1CCCCC1,-11%,2
Cc1cccc(S(=O)(=O)CCCn2cncn2)c1,8%,-0.96
COCCNC(=O)c1ccc(NC(=O)c2nnc(CC(C)C)s2)cc1,-14%,1.64
CCCCNc1ccc(C(N)=O)c(Cl)c1,3%,-0.53
CCOc1ccc(NC(=O)C[C@@H]2Nc3cccc4cccc(c34)NC2=O)cc1,7%,-0.74
CCOC[C@@]12CCN(C(C)=O)C[C@@H]1CN(S(=O)(=O)c1ccccc1Cl)C2,-15%,2.2
CN(CCc1ccc2c(c1)CCO2)CCS(C)(=O)=O,-6%,0.86
O=C(COC[C@H]1CCCCO1)N1CCN(c2ccc3[nH]ncc3c2)C(=O)C1,-6%,1.26
Cc1ccc(C)c(NC(=O)Cn2nc(N3CCCCCC3)c3ccccc3c2=O)c1,-10%,1.51
CN(C)C[C@H]1CN(CCC(=O)NCc2ccccc2Cl)CCO1,-8%,1.03
CN1c2ccccc2N(C2CCN(C(=O)c3ccc(C(F)(F)F)nc3)CC2)S1(=O)=O,5%,-0.53
Nc1c(Cl)cc(C(=O)N2CCC3OCC(=O)NC3C2)cc1Cl (stereo not drawn),0%,0.06
CCCN1C[C@]23C=C[C@H](O2)[C@H](C(=O)NCCc2scnc2C)[C@@H]3C1=O,-16%,1.49
Cc1ccccc1S(=O)(=O)N[C@H]1CCN(c2ccc(=O)n(C)n2)C1,-3%,0.45
CCNC(=O)c1ccccc1NC(=O)CC,-23%,1.98
CC(C)NC(=O)NC[C@H]1CCCN(Cc2ccnc(C(C)C)n2)C1,-13%,1.31

Compound,% Inhibition,Z score
CN(C(=O)c1cccc(Nc2cnccn2)c1)c1ccc(F)cc1,16%,-2.09
COC[C@@H]1CN(c2cnccn2)C[C@H]1C(=O)NCc1c(C)nn(C)c1C,-8%,1.15
CCOC1CC(CC(=O)N[C@H]2CC(=O)N(c3cnn(C)c3)C2)C1 (stereo partly drawn),-20%,2.01
c1coc(CN2CCC(N3CCOc4ccccc4C3)CC2)c1,0%,0.06
Cn1nccc1[C@@H]1CCCN1CC(=O)Nc1cc(F)ccc1F,-21%,2.29
CCOc1ccc2nc(CN(Cc3cnn(C)c3)C3CC3)ccc2c1,-7%,1.15
Cc1ccnc(NCCc2csc(C(C)C)n2)n1,-18%,1.77
CCc1ccc(C(=O)N2CCC3(CC2)OC[C@@H](C(=O)NCc2cccnc2)N3C(=O)c2ccc(F)cc2)cc1,-14%,1.41
CC(C)N1C2CCC1CN(C(=O)c1ccc(N3CCCC3)nc1)CC2 (stereo not drawn),35%,-3.94
COCCCn1c(C)cc(C(=O)N2CCC3(CC2)CC[C@]3(C)O)c1C,-7%,0.82
Cc1nc2ccnn2c(C)c1C(=O)Nc1cnn(C2CCC2)c1,-13%,1.35
COc1cc(C)nc(CON=C(N)c2ccc(N(C)C)cc2)c1,3%,-0.5
O=C1CC2(CCN(C(=O)c3cccnc3O)CC2)CN1Cc1ccccc1,-4%,0.56
COCCn1cc2c(n1)[C@@H](NCc1ccc(F)cc1)CCC2,-3%,0.29
O=C(CCc1nc([C@H]2CCOC2)no1)c1ccccc1,-1%,0.17
O=C(NCc1ccco1)C1CCCC(F)C1 (stereo not drawn),1%,-0.14
CCc1noc(C)c1NC(=O)C(=O)N1CCC[C@H]1c1ccncc1,-10%,1.9
Cc1ccc(C(=O)N(CC(=O)N2CCc3sccc3C2COc2ccc(C(C)C)cc2)CC2CCCO2)cc1 (stereo not drawn),-6%,0.93
O=C(Cc1ccccc1CO)NC[C@H]1CCCC[C@@H]1O,3%,-0.55
CC(C)NC(=O)[C@@H]1C[C@@H](NCc2cccc(C(F)(F)F)c2)CN1C(C)C,17%,-2.3
COc1cccc(CC(=O)NC2CC2)c1,-11%,1.52

Compound,% Inhibition,Z score
Cc1c(CC(=O)N[C@@H](C)C2CC2)c2c(n1Cc1ccc(F)cc1)CCCC2=O,-12%,1.39
NCCOc1ccc(CC(=O)N2C[C@@H]3CCC[C@@H](C3)C2)cc1,-16%,2.96
COCC1(C(=O)N2CC[C@@]3(CCCN(C4CCCC4)C3=O)C2)CCC1,-5%,0.88
Cc1ccoc1C(=O)N1CCN(C[C@H](O)COc2ccccc2)CC1,-8%,1.46
COc1cccc(CNC(=O)Cn2c(=O)n(Cc3ccc(F)cc3)c(=O)c3nn(C)cc32)c1,-2%,0.3
Cc1cc(C(F)(F)F)nn1C[C@@H](C)CNC(=O)c1nc2ncccn2n1,-44%,5.17
CS(=O)(=O)N1CCN(CCC(=O)Nc2ccc3c(c2)CCC3)CC1,9%,-1.35
Cc1cc(S(=O)(=O)N(CC#N)C(C)C)c(C)s1,-5%,0.65
COCCNc1c(-c2ccccc2)nc2sc(C(=O)NC3CCCC3)c(C)n12,-11%,1.1
CCCc1nc2c(C)cccn2c1NC(C)(C)CC(C)(C)C,6%,-0.63
CCCN1CC[C@@H]2N(C(=O)c3cc(C)n(CC)c3C)CCC[C@@]2(CO)C1,-4%,0.42
Cc1cc(CCNC(=O)c2ccc(Cl)cc2)on1,-10%,1.6
CN(CC(=O)Nc1ccc2c(c1)OCO2)C1CCCCC1,3%,-0.32
Cn1nc(-c2ccccc2)c(CN(Cc2ccco2)C[C@H](O)COCc2ccccc2)c1Oc1ccccc1,-13%,1.39
O=C1CCc2cc(S(=O)(=O)N3CCC(Cc4ccccc4)CC3)cc3c2N1CCC3,-18%,3.49
Cc1[nH]/c(=N\C(=O)c2csc(NCC(C)C)n2)sc1C,-3%,0.41
CCN(C[C@H]1CCCO1)C(=O)c1cc(NS(=O)(=O)CC)cc2nc(-c3ccccc3)n(C)c12,-11%,1.26
Cc1ccc(S(=O)(=O)N(C)C[C@H](C)c2nnn[nH]2)s1,-10%,0.81
COc1ccc2c(c1)C[C@H](NS(=O)(=O)Cc1ccccc1)CO2,-8%,1.13
C=CCCC(=O)Nc1ccc(O)cc1OC(F)(F)F,7%,-1.26
CCOC1CC(CC(=O)N[C@H]2CO[C@@H]2c2ccccc2)C1 (stereo partly drawn),-9%,1.04

Compound,% Inhibition,Z score
C[C@H](O)CN1CCN(Cc2cn3ccccc3c2C#N)CC1,-13%,2.38
CC[C@H]1CCN1C(=O)C1(CF)CCOCC1,-5%,0.47
CN1CCN(CC(=O)N2CCC([C@@H](O)CCc3ccccc3)CC2)C1=O,2%,-0.32
Cc1ccc(Cc2nnn(CC(=O)N[C@@H](C)c3ccc(F)cc3)n2)cc1,-10%,1.3
CN(C(=O)c1cc(Br)cnc1C1CC1)c1nncs1,-18%,1.82
CCCn1ncnc1[C@H](C)NC(=O)Nc1cc(NC(=O)CC)ccc1F,-3%,0.6
CN(CC1(CO)CCC1)C(=O)c1cnc(C2CC2)nc1,19%,-2.57
CC[C@H](C)NC(=O)CCCN1C(=O)CCn2nc(-c3cccn3C)cc21,-2%,0.47
CC(C)(C)C(=O)NC1CCC(C(=O)N2CC[C@H](CCO)C2)CC1 (stereo partly drawn),-10%,1.12
CC[C@@H](CO)NS(=O)(=O)Cc1ccc(Br)cc1,5%,-0.88
O=S(=O)(NCc1ccccn1)N1CCCCC1,11%,-1.08
CC(C)Oc1cccc(C(=O)[C@H]2CCCN(Cc3cn(CC(N)=O)c4ccccc34)C2)c1,-13%,1.22
Cc1nc(CC(N)=NOCC(=O)Nc2ccc(F)c(Cl)c2)cs1,-11%,1.34
CCO[C@@H](C)C(=O)N(C)Cc1cnc2ccccc2n1,-11%,1.39
CC1CCN(C2CC(=O)N(c3ccc(N4C(=O)CC(N5CCC(C)CC5)C4=O)cc3)C2=O)CC1 (stereo not drawn),-10%,1.37
O=C(Nc1ccc(N2CCn3c(nc4ccccc43)C2)cc1)c1ccc(F)cc1,34%,-1.63
CCC(CC)N(CCOC)C(=O)NC[C@@H](c1ccco1)N1CCCC1,-10%,1.43
CCC1(C(=O)NC(C)C2CCN(Cc3ccccc3)C2)CCOCC1 (stereo not drawn),-5%,0.61
Cc1ccc(C2CC(c3cccc4ccccc34)n3ncnc3N2)cc1 (stereo not drawn),-11%,1.7
C=CCN1CC[C@@]2(CCC1=O)CN(Cc1cc3ccccc3o1)CCN2C,14%,-1.97
O=C(c1ccc2ncsc2c1)N1C[C@@H]2CC[C@H]1CN(Cc1ccccn1)C2,-11%,1.69
